Where a name gives a salt, the structure may show the parent alone.
Each compound was assayed on MLKL phosphorylation, HT29-L23 human colorectal adenocarcinoma cells (assay: cells). Conditions: read-out: pMLKL HCS Cell Assay (IC50, uM).
For `CC(O)(CC(=O)N1C[C@H](F)[C@H](NC(=O)c2cc(-c3cc(C(F)(F)F)c4c(N)ncnn34)cc(F)c2F)C1)C(F)(F)F` (stereo partly drawn) [Example 1334, 5-[4-amino-5-(trifluoromethyl)pyrrolo-[2,1-f][1,2,4]triazin-7-yl]-2,3-difluoro-N-[(3R,4S)-4-fluoro-1-(4,4,4-trifluoro-3-hydroxy-3-methylbutanoyl)pyrrolidin-3-yl]benzamide], the IC50 was 0.0087 µM.
Compound `Nc1ncnn2c(-c3ccc(Cl)c(C(=O)N[C@@H]4CN(C(=O)C5CCC(F)(F)C5)C[C@@H]4F)c3)cc(CN3CCC(C(F)(F)F)CC3)c12` (stereo partly drawn) [Example 1161, 5-(4-amino-5-{[4-(trifluoromethyl)piperidin-1-yl]methyl}pyrrolo[2,1-f][1,2,4]triazin-7-yl)-2-chloro-N-[(3R,4S)-1-(3,3-difluorocyclopentanecarbonyl)-4-fluoropyrrolidin-3-yl]benzamide] has an IC50 of 0.0026 µM.
Work on `COc1ncc(-c2cc(C(=O)NCC#N)c3c(N)ncnn23)cc1C(=O)N1CCC[C@@H](Cc2ccc(F)cc2)C1` [Example 468, 4-amino-N-(cyanomethyl)-7-{5-[(3S)-3-[(4-fluorophenyl)methyl]piperidine-1-carbonyl]-6-methoxypyridin-3-yl}pyrrolo[2,1-f][1,2,4]triazine-5-carboxamide] yielded an IC50 of 0.037 µM.
Compound `CC(C(=O)N1C[C@H](F)[C@H](NC(=O)c2c(F)ccc(-c3cc(C(F)(F)F)c4c(N)ncnn34)c2F)C1)C(F)(F)F` (stereo partly drawn) [Example 726, 3-[4-amino-5-(trifluoromethyl)pyrrolo[2,1-f][1,2,4]triazin-7-yl]-2,6-difluoro-N-[(3R,4S)-4-fluoro-1-(3,3,3-trifluoro-2-methylpropanoyl)pyrrolidin-3-yl]benzamide] has an IC50 of 0.234 µM.
`Nc1ncnn2c(-c3cnc(F)c(C(=O)NCCC(O)(c4ccccc4)C(F)(F)F)c3)cc(C(F)(F)F)c12` (stereo not drawn) [Example 273, 5-[4-amino-5-(trifluoromethyl)pyrrolo[2,1-f][1,2,4]triazin-7-yl]-2-fluoro-N-(4,4,4-trifluoro-3-hydroxy-3-phenylbutyl)pyridine-3-carboxamide] was tested, and the IC50 was 0.148 µM.
`Cc1nc(C)c(-c2cc(C(F)(F)F)c3c(N)ncnn23)cc1C(=O)N[C@@H]1CN(C(=O)CC(C)(O)C(F)(F)F)C[C@@H]1F` (stereo partly drawn) [Example 1194, 5-[4-amino-5-(trifluoromethyl)pyrrolo[2,1-f][1,2,4]triazin-7-yl]-N-[(3R,4S)-4-fluoro-1-(4,4,4-trifluoro-3-hydroxy-3-methylbutanoyl)pyrrolidin-3-yl]-2,6-dimethylpyridine-3-carboxamide] showed an IC50 of 0.166 µM.
Work on `COc1ncc(-c2cc(CN3CCC(F)(F)CC3)c3c(N)ncnn23)cc1C(=O)N[C@@H]1CN(C(=O)c2ccc(Cl)cc2)C[C@@H]1F` [Example 1238, 5-{4-amino-5-[(4,4-difluoropiperidin-1-yl)methyl]pyrrolo[2,1-f][1,2,4]triazin-7-yl}-N-[(3R,4S)-1-(4-chlorobenzoyl)-4-fluoropyrrolidin-3-yl]-2-methoxypyridine-3-carboxamide] yielded an IC50 of 0.013 µM.
With `Cc1cc(F)c(-c2cc(CN3CCC(F)(F)CC3)c3c(N)ncnn23)cc1C(=O)N[C@@H]1CN(C(=O)C(C)(C)F)C[C@@H]1F` [Example 1660, 5-{4-amino-5-[(4,4-difluoropiperidin-1-yl)methyl]pyrrolo[2,1-f][1,2,4]triazin-7-yl}-4-fluoro-N-[(3R,4S)-4-fluoro-1-(2-fluoro-2-methylpropanoyl)pyrrolidin-3-yl]-2-methylbenzamide] the IC50 was 0.00079 µM.
In the case of `COc1ncc(-c2cc(C(F)(F)F)c3c(N)ncnn23)cc1C(=O)N[C@@H]1CN(C(=O)c2cc(F)ccc2F)C[C@@H]1F` [Example 341, 5-[4-amino-5-(trifluoromethyl)pyrrolo[2,1-f][1,2,4]triazin-7-yl]-N-[(3R,4S)-(2,5-difluoro-benzoyl)-4-fluoropyrrolidin-3-yl]-2-methoxypyridine-3-carboxamide, TFA], the IC50 is reported as 0.011 µM.
`COc1ncc(-c2cc(C(F)(F)F)c3c(N)ncnn23)cc1C(=O)N[C@@H]1CN(C(=O)OC(C)C(F)(F)F)C[C@@H]1F` (stereo partly drawn) [Example 1446, 1,1,1-trifluoropropan-2-yl (3R,4S)-3-{5-[4-amino-5-(trifluoromethyl)pyrrolo[2,1-f][1,2,4]triazin-7-yl]-2-methoxypyridine-3-amido}-4-fluoropyrrolidine-1-carboxylate] gave an IC50 of 0.0019 µM.
Compound `Cc1ccc(-c2cc(C(F)(F)F)c3c(N)ncnn23)cc1C(=O)Nc1ncn(Cc2ccccc2)c1C` [Example 1795, 5-(4-amino-5-(trifluoromethyl)pyrrolo[2,1-f][1,2,4]triazin-7-yl)-N-(1-benzyl-5-methyl-1H-imidazol-4-yl)-2-methylbenzamide] has an IC50 of 0.01 µM.
With `N#Cc1cc(-c2cccc(C(=O)NCCC(O)c3ccccc3)c2)n2ncnc(N)c12` (stereo not drawn) [Example 5, 3-{4-amino-5-cyanopyrrolo[2,1-f][1,2,4]triazin-7-yl}-N-(3-hydroxy-3-phenylpropyl)benzamide] the IC50 was 0.016 µM.
Work on `COc1nc(C)c(-c2cc(C(F)(F)F)c3c(N)ncnn23)cc1C(=O)NCCC(O)(c1ccccc1)C(F)(F)F` (stereo not drawn) [Example 288, 5-[4-amino-5-(trifluoromethyl)pyrrolo[2,1-f][1,2,4]triazin-7-yl]-2-methoxy-6-methyl-N-(4,4,4-trifluoro-3-hydroxy-3-phenylbutyl)pyridine-3-carboxamide] yielded an IC50 of 0.276 µM.
In the case of `COc1ncc(-c2cc(C(F)(F)F)c3c(N)ncnn23)cc1C(=O)NC1CN(C2CCCC2(C)C)C[C@@H]1F` (stereo partly drawn) [Example 1365, 5-[4-amino-5-(trifluoromethyl)-pyrrolo[2,1-f][1,2,4]triazin-7-yl]-N-[(3R,4S)-1-(2,2-dimethylcyclopentyl)-4-fluoropyrrolidin-3-yl]-2-methoxypyridine-3-carbox-amide], the IC50 is reported as 0.253 µM.
In the case of `Cc1ccc(-c2cc(C(F)(F)F)c3c(N)ncnn23)cc1C(=O)N[C@@H]1CN(C(=O)c2cc(C(F)(F)F)ccn2)C[C@@H]1F` [Example 1001, 5-[4-amino-5-(trifluoromethyl)pyrrolo[2,1-f][1,2,4]triazin-7-yl]-N-[(3R,4S)-4-fluoro-1-[4-(trifluoromethyl)pyridine-2-carbonyl]pyrrolidin-3-yl]-2-methylbenzamide], the IC50 is reported as 0.065 µM.
Compound `COc1ncc(-c2c(-c3nnn(C)n3)cc3c(N)ncnn23)cc1C(=O)N[C@@H]1CN(C(=O)[C@@](C)(O)C(F)(F)F)C[C@@H]1F` [Example 545, 5-(4-amino-6-(2-methyl-2H-tetrazol-5-yl)pyrrolo[2,1-f][1,2,4]triazin-7-yl)-N-((3R,4S)-4-fluoro-1-((R)-3,3,3-trifluoro-2-hydroxy-2-methylpropanoyl)pyrrolidin-3-yl)-2-methoxynicotinamide] has an IC50 of 0.33 µM.
Compound `COC(C(C)C(F)(F)F)C(C)(O)CNC(=O)c1cc(-c2cc(C(F)(F)F)c3c(N)ncnn23)cnc1C` (stereo not drawn) [Example 1755, 5-(4-amino-5-(trifluoromethyl)pyrrolo[2,1-f][1,2,4]triazin-7-yl)-2-methyl-N-(5,5,5-trifluoro-2-hydroxy-3-methoxy-2,4-dimethylpentyl)nicotinamide] has an IC50 of 0.197 µM.
With `Cc1ccc(-c2cc(C(F)(F)F)c3c(N)ncnn23)cc1C(=O)N[C@@H]1CN(C(=O)CC2CCCC2)C[C@@H]1F` [Example 1044, 5-[4-amino-5-(trifluoromethyl)pyrrolo[2,1-f][1,2,4]triazin-7-yl]-N-[(3R,4S)-1-(2-cyclopentylacetyl)-4-fluoropyrrolidin-3-yl]-2-methylbenzamide] the IC50 was 0.0014 µM.
Work on `[2H]C([2H])([2H])Oc1ncc(-c2cc(CN3CC(F)(F)C3)c3c(N)ncnn23)cc1C(=O)N[C@@H]1CN(S(=O)(=O)CC2CC2)C[C@@H]1F` [Example 1292, 5-{4-amino-5-[(3,3-difluoroazetidin-1-yl)methyl]pyrrolo[2,1-f][1,2,4]triazin-7-yl}-N-[(3R,4S)-1-cyclopropylmethanesulfonyl-4-fluoropyrrolidin-3-yl]-2-(methoxy-d3)nicotinamide] yielded an IC50 of 0.00058 µM.
With `CCC(O)(C(=O)N1C[C@H](F)[C@H](NC(=O)c2cc(-c3cc(C(F)(F)F)c4c(N)ncnn34)cc(F)c2CF)C1)C(F)(F)F` (stereo partly drawn) [Example 628, 5-[4-amino-5-(trifluoromethyl)pyrrolo[2,1-f][1,2,4]triazin-7-yl]-3-fluoro-N-[(3R,4S)-4-fluoro-1-[2-hydroxy-2-(trifluoromethyl)butanoyl]pyrrolidin-3-yl]-2-(fluoromethyl)benzamide] the IC50 was 0.0039 µM.
`Nc1ncnn2c(-c3ccc(OCC(F)(F)F)c(C(=O)N[C@@H]4CN(C(=O)C5CC5(F)F)C[C@@H]4F)c3)cc(C(F)(F)F)c12` (stereo partly drawn) [Example 1069, 5-[4-amino-5-(trifluoromethyl)pyrrolo[2,1-f][1,2,4]triazin-7-yl]-N-[(3R,4S)-1-(2,2-difluorocyclopropanecarbonyl)-4-fluoropyrrolidin-3-yl]-2-(2,2,2-trifluoroethoxy)benzamide] showed an IC50 of 0.375 µM.
Work on `Cc1cc(F)c(-c2cc(CN3CCC(F)(F)CC3)c3c(N)ncnn23)cc1C(=O)N[C@@H]1CN(C(=O)C(C)(C)C(F)(F)F)C[C@@H]1F` [Example 1657, 5-{4-amino-5-[(4,4-difIuoropiperidin-1-yl)methyl]pyrrolo[2,1-f][1,2,4]triazin-7-yl}-4-fluoro-N-[(3R,4S)-4-fluoro-1-(3,3,3-trifluoro-2,2-dimethylpropanoyl)pyrrolidin-3-yl]-2-methylbenzamide] yielded an IC50 of 0.0011 µM.
In the case of `Cc1ccc(-c2cc(C(F)(F)F)c3c(N)ncnn23)cc1C(=O)N[C@@H]1CN(C(=O)c2cc(F)cc(F)c2)C[C@@H]1F` [Example 1029, 5-[4-amino-5-(trifluoromethyl)pyrrolo[2,1-f][1,2,4]triazin-7-yl]-N-[(3R,4S)-1-(3,5-difluorobenzoyl)-4-fluoropyrrolidin-3-yl]-2-methylbenzamide], the IC50 is reported as 0.0013 µM.
Compound `CCC(O)(C(=O)N1C[C@H](F)[C@H](NC(=O)c2c(F)ccc(-c3cc(C(F)(F)F)c4c(N)ncnn34)c2F)C1)C(F)(F)F` (stereo partly drawn) [Example 729, 3-[4-amino-5-(trifluoromethyl)pyrrolo[2,1-f][1,2,4]triazin-7-yl]-2,6-difluoro-N-[(3R,4S)-4-fluoro-1-[2-hydroxy-2-(trifluoromethyl)butanoyl]pyrrolidin-3-yl]benzamide] has an IC50 of 0.08 µM.
